The list shows a part of the results. The list includes weakly bound sequences.
The sequences below were run against MaxL homodimer (UniProt P61244) (assay: universal protein-binding microarray (PBM)). Conditions: PBS-based mixture, 10 nM His-tagged protein dimer, 2% milk, 200 ng/uL BSA, 50 ng/uL salmon testes DNA, 0.02% TX-100; detection with Alexa 488 anti-His …; high values mean tight binding; most listed sequences are background and not binding sites; double strand, one strand shown.
Chain of UniProt P61244 (P61244 whole entry): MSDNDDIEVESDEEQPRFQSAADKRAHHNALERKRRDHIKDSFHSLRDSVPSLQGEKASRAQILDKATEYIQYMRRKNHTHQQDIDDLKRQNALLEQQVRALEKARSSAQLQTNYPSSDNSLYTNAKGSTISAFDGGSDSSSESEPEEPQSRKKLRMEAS

With CCGGGAAA as the sequence, how does the binding signal (normalized occupancy) read?
The binding signal (normalized occupancy) was 0.0696.

Which binding signal (normalized occupancy) does the source give for TAAAGCAA here?
Its binding signal (normalized occupancy) is 0.0737.

How did the binding signal (normalized occupancy) turn out when GTAATTAA was run?
Its binding signal (normalized occupancy) is 0.0749.

With AGGCTTTC as the sequence, how does the binding signal (normalized occupancy) read?
Its binding signal (normalized occupancy) is 0.0709.

How did the binding signal (normalized occupancy) turn out when CGACGGAC was run?
Its binding signal (normalized occupancy) is 0.0689.

For GCTCCTAA, which binding signal (normalized occupancy) is on record?
The binding signal (normalized occupancy) was 0.0767.

How did the binding signal (normalized occupancy) turn out when CCCCACAA was run?
The binding signal (normalized occupancy) was 0.0805.

With GTGTCATA as the sequence, how does the binding signal (normalized occupancy) read?
The binding signal (normalized occupancy) was 0.0871.

With CTAGTAGC as the sequence, how does the binding signal (normalized occupancy) read?
Its binding signal (normalized occupancy) is 0.0716.

For ATAACTAC, which binding signal (normalized occupancy) is on record?
Its binding signal (normalized occupancy) is 0.0842.

How did the binding signal (normalized occupancy) turn out when GATACGCC was run?
Its binding signal (normalized occupancy) is 0.0691.

ATGGATAA was tested. Which binding signal (normalized occupancy) did it give?
Its binding signal (normalized occupancy) is 0.0886.

With AGTTCAAA as the sequence, how does the binding signal (normalized occupancy) read?
Its binding signal (normalized occupancy) is 0.0684.

How did the binding signal (normalized occupancy) turn out when GTAAGCGA was run?
Its binding signal (normalized occupancy) is 0.0718.

GGGCACGA was tested. Which binding signal (normalized occupancy) did it give?
The binding signal (normalized occupancy) was 0.0767.

CAAGTCGC was tested. Which binding signal (normalized occupancy) did it give?
Its binding signal (normalized occupancy) is 0.0719.

Which binding signal (normalized occupancy) does the source give for GGTTGAGA here?
Its binding signal (normalized occupancy) is 0.0711.

With CCGGAGAC as the sequence, how does the binding signal (normalized occupancy) read?
The binding signal (normalized occupancy) was 0.0732.

With CCCTAAAG as the sequence, how does the binding signal (normalized occupancy) read?
Its binding signal (normalized occupancy) is 0.0716.

Which binding signal (normalized occupancy) does the source give for ATTCCACA here?
Its binding signal (normalized occupancy) is 0.0794.

With AACTTGGT as the sequence, how does the binding signal (normalized occupancy) read?
Its binding signal (normalized occupancy) is 0.0721.

With AAGCCCTT as the sequence, how does the binding signal (normalized occupancy) read?
The binding signal (normalized occupancy) was 0.0701.

GGGACAAC was tested. Which binding signal (normalized occupancy) did it give?
Its binding signal (normalized occupancy) is 0.0753.

With CCGGCAGA as the sequence, how does the binding signal (normalized occupancy) read?
The binding signal (normalized occupancy) was 0.0655.

For CGTTCCAG, which binding signal (normalized occupancy) is on record?
The binding signal (normalized occupancy) was 0.0685.

For CCGATTGA, which binding signal (normalized occupancy) is on record?
The binding signal (normalized occupancy) was 0.0737.

Which binding signal (normalized occupancy) does the source give for CTTTTAAA here?
Its binding signal (normalized occupancy) is 0.0734.

Which binding signal (normalized occupancy) does the source give for GGTCAACC here?
The binding signal (normalized occupancy) was 0.0682.

For TGGTTACA, which binding signal (normalized occupancy) is on record?
The binding signal (normalized occupancy) was 0.0825.

How did the binding signal (normalized occupancy) turn out when GTCGCACA was run?
Its binding signal (normalized occupancy) is 0.0775.

Which binding signal (normalized occupancy) does the source give for ATGCTAGC here?
Its binding signal (normalized occupancy) is 0.0843.

For ACGCAGTC, which binding signal (normalized occupancy) is on record?
Its binding signal (normalized occupancy) is 0.0707.

With CCACGAAC as the sequence, how does the binding signal (normalized occupancy) read?
The binding signal (normalized occupancy) was 0.0761.

With CGACCTAA as the sequence, how does the binding signal (normalized occupancy) read?
The binding signal (normalized occupancy) was 0.0709.

For AAACAGTC, which binding signal (normalized occupancy) is on record?
The binding signal (normalized occupancy) was 0.0722.

Which binding signal (normalized occupancy) does the source give for AACCAACA here?
Its binding signal (normalized occupancy) is 0.07.

How did the binding signal (normalized occupancy) turn out when CGTTTTAA was run?
The binding signal (normalized occupancy) was 0.0707.

For ATCAACAA, which binding signal (normalized occupancy) is on record?
The binding signal (normalized occupancy) was 0.0796.

Which binding signal (normalized occupancy) does the source give for GTGATTTA here?
Its binding signal (normalized occupancy) is 0.0772.

Which binding signal (normalized occupancy) does the source give for ACCACGCG here?
The binding signal (normalized occupancy) was 0.187.

With GACTCCGC as the sequence, how does the binding signal (normalized occupancy) read?
Its binding signal (normalized occupancy) is 0.0741.

For CTAGGCCC, which binding signal (normalized occupancy) is on record?
The binding signal (normalized occupancy) was 0.0764.

Which binding signal (normalized occupancy) does the source give for ATCCCAGC here?
Its binding signal (normalized occupancy) is 0.0757.

Which binding signal (normalized occupancy) does the source give for ATAGGCCC here?
The binding signal (normalized occupancy) was 0.0766.

ACTTGCCG was tested. Which binding signal (normalized occupancy) did it give?
The binding signal (normalized occupancy) was 0.0742.

How did the binding signal (normalized occupancy) turn out when AAGCCTAA was run?
Its binding signal (normalized occupancy) is 0.0724.

ATGTGAAC was tested. Which binding signal (normalized occupancy) did it give?
Its binding signal (normalized occupancy) is 0.0883.

Which binding signal (normalized occupancy) does the source give for GCCGGCCC here?
Its binding signal (normalized occupancy) is 0.0678.

Which binding signal (normalized occupancy) does the source give for CCCCCCCC here?
Its binding signal (normalized occupancy) is 0.0924.

Which binding signal (normalized occupancy) does the source give for ATACGAAC here?
The binding signal (normalized occupancy) was 0.0781.

For AAGAAGCA, which binding signal (normalized occupancy) is on record?
Its binding signal (normalized occupancy) is 0.0757.

Which binding signal (normalized occupancy) does the source give for ACTCGGTA here?
The binding signal (normalized occupancy) was 0.0735.

How did the binding signal (normalized occupancy) turn out when GACGCGTC was run?
The binding signal (normalized occupancy) was 0.0757.

How did the binding signal (normalized occupancy) turn out when CCTGAAAC was run?
The binding signal (normalized occupancy) was 0.0731.

With ACGGTATA as the sequence, how does the binding signal (normalized occupancy) read?
Its binding signal (normalized occupancy) is 0.0777.

With AGTCACGA as the sequence, how does the binding signal (normalized occupancy) read?
The binding signal (normalized occupancy) was 0.0912.

Which binding signal (normalized occupancy) does the source give for AAGCGGAC here?
Its binding signal (normalized occupancy) is 0.0691.

How did the binding signal (normalized occupancy) turn out when CTGCCCAA was run?
Its binding signal (normalized occupancy) is 0.0752.

With ATTCGCCG as the sequence, how does the binding signal (normalized occupancy) read?
The binding signal (normalized occupancy) was 0.0715.

How did the binding signal (normalized occupancy) turn out when CGTCCTAG was run?
The binding signal (normalized occupancy) was 0.0707.

CTTTGTGC was tested. Which binding signal (normalized occupancy) did it give?
The binding signal (normalized occupancy) was 0.0748.

Which binding signal (normalized occupancy) does the source give for CGCTGCAG here?
The binding signal (normalized occupancy) was 0.0694.

Which binding signal (normalized occupancy) does the source give for CAAGCGTC here?
Its binding signal (normalized occupancy) is 0.0702.

CTCCTGTC was tested. Which binding signal (normalized occupancy) did it give?
The binding signal (normalized occupancy) was 0.0719.

Which binding signal (normalized occupancy) does the source give for TACTGAGA here?
Its binding signal (normalized occupancy) is 0.0751.

For AGTGGCCG, which binding signal (normalized occupancy) is on record?
Its binding signal (normalized occupancy) is 0.072.

With ATATAGAA as the sequence, how does the binding signal (normalized occupancy) read?
The binding signal (normalized occupancy) was 0.0868.

With CATCGTCA as the sequence, how does the binding signal (normalized occupancy) read?
The binding signal (normalized occupancy) was 0.0757.

With AACTAAGA as the sequence, how does the binding signal (normalized occupancy) read?
Its binding signal (normalized occupancy) is 0.0758.

GCCGATGA was tested. Which binding signal (normalized occupancy) did it give?
The binding signal (normalized occupancy) was 0.0713.

Which binding signal (normalized occupancy) does the source give for GCACGGGC here?
The binding signal (normalized occupancy) was 0.0761.

With CGCTTGGA as the sequence, how does the binding signal (normalized occupancy) read?
Its binding signal (normalized occupancy) is 0.0727.

GAACACTA was tested. Which binding signal (normalized occupancy) did it give?
The binding signal (normalized occupancy) was 0.0739.

AATAATCT was tested. Which binding signal (normalized occupancy) did it give?
The binding signal (normalized occupancy) was 0.0762.

GATACGAC was tested. Which binding signal (normalized occupancy) did it give?
Its binding signal (normalized occupancy) is 0.0742.

For CAGGTCAC, which binding signal (normalized occupancy) is on record?
Its binding signal (normalized occupancy) is 0.0772.

With AAAACGAA as the sequence, how does the binding signal (normalized occupancy) read?
Its binding signal (normalized occupancy) is 0.0697.

For ATAAGTAG, which binding signal (normalized occupancy) is on record?
Its binding signal (normalized occupancy) is 0.0743.

Which binding signal (normalized occupancy) does the source give for CATCGTGC here?
The binding signal (normalized occupancy) was 0.0886.

GCGACCCA was tested. Which binding signal (normalized occupancy) did it give?
Its binding signal (normalized occupancy) is 0.0734.

With ATTCTCAG as the sequence, how does the binding signal (normalized occupancy) read?
Its binding signal (normalized occupancy) is 0.0751.

With ACCTTAAA as the sequence, how does the binding signal (normalized occupancy) read?
The binding signal (normalized occupancy) was 0.0726.

Which binding signal (normalized occupancy) does the source give for CGCTTAAC here?
The binding signal (normalized occupancy) was 0.0754.

How did the binding signal (normalized occupancy) turn out when ACGTTTGC was run?
The binding signal (normalized occupancy) was 0.0802.

With ACGTAACT as the sequence, how does the binding signal (normalized occupancy) read?
Its binding signal (normalized occupancy) is 0.0731.

For CCGAGTAC, which binding signal (normalized occupancy) is on record?
The binding signal (normalized occupancy) was 0.0694.

Which binding signal (normalized occupancy) does the source give for GTCCCATA here?
Its binding signal (normalized occupancy) is 0.0779.

For CCTGTTCA, which binding signal (normalized occupancy) is on record?
The binding signal (normalized occupancy) was 0.0778.

With GTTGTGAA as the sequence, how does the binding signal (normalized occupancy) read?
Its binding signal (normalized occupancy) is 0.0763.

Which binding signal (normalized occupancy) does the source give for TCTGATCA here?
The binding signal (normalized occupancy) was 0.0721.

How did the binding signal (normalized occupancy) turn out when GTGCCAAA was run?
Its binding signal (normalized occupancy) is 0.0704.

With AGGTGTGG as the sequence, how does the binding signal (normalized occupancy) read?
The binding signal (normalized occupancy) was 0.0847.

For GGGTCTAC, which binding signal (normalized occupancy) is on record?
The binding signal (normalized occupancy) was 0.0725.

Which binding signal (normalized occupancy) does the source give for CATTCTGA here?
Its binding signal (normalized occupancy) is 0.076.

Which binding signal (normalized occupancy) does the source give for GTAGGTTA here?
The binding signal (normalized occupancy) was 0.0763.

With GACCGCAC as the sequence, how does the binding signal (normalized occupancy) read?
Its binding signal (normalized occupancy) is 0.0744.

For GGTTTTGA, which binding signal (normalized occupancy) is on record?
Its binding signal (normalized occupancy) is 0.0713.

For CCAGCCCG, which binding signal (normalized occupancy) is on record?
Its binding signal (normalized occupancy) is 0.073.

ATCGATGA was tested. Which binding signal (normalized occupancy) did it give?
Its binding signal (normalized occupancy) is 0.0821.

With CGGCACTA as the sequence, how does the binding signal (normalized occupancy) read?
The binding signal (normalized occupancy) was 0.0762.

With TGAGTTAA as the sequence, how does the binding signal (normalized occupancy) read?
The binding signal (normalized occupancy) was 0.078.

With AGTGCGTG as the sequence, how does the binding signal (normalized occupancy) read?
The binding signal (normalized occupancy) was 0.0902.

How did the binding signal (normalized occupancy) turn out when CCCACGGG was run?
Its binding signal (normalized occupancy) is 0.0859.

How did the binding signal (normalized occupancy) turn out when CAAAGGCA was run?
The binding signal (normalized occupancy) was 0.0733.

With ACGTGGGG as the sequence, how does the binding signal (normalized occupancy) read?
The binding signal (normalized occupancy) was 0.0991.

With ACCAGACT as the sequence, how does the binding signal (normalized occupancy) read?
The binding signal (normalized occupancy) was 0.0722.

AATAGTAG was tested. Which binding signal (normalized occupancy) did it give?
The binding signal (normalized occupancy) was 0.0778.

CACGTCTG was tested. Which binding signal (normalized occupancy) did it give?
The binding signal (normalized occupancy) was 0.0814.

With CTTAAGTA as the sequence, how does the binding signal (normalized occupancy) read?
The binding signal (normalized occupancy) was 0.0743.

ACCCATCA was tested. Which binding signal (normalized occupancy) did it give?
The binding signal (normalized occupancy) was 0.0855.

From PMC4242493
